Some of the results follow. These are further read-outs of the screen, such as a control signal, another cell line or another target. No call is given for them.
What was measured:
Experiment in all cases: Primary Screen for Target Class Profiling of Small Molecule Inhibitors of Methyltransferases
[1] = target: Glycine N-methyltransferase (Homo sapiens) (UniProt Q14749); conditions: purified enzyme, MTase-Glo SAH luminescence; measured here: GNMT inhibition; at 40 µM; stronger effect = lower value
Method in brief: (§1)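 Each enzyme was reacted with SAM and its substrate, with compounds tested once at 40 uM; SAH formed was read by MTase-Glo luminescence.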

[2] = target: Guanidinoacetate N-methyltransferase (Homo sapiens) (UniProt Q14353); conditions: purified enzyme, MTase-Glo SAH luminescence; measured here: GAMT inhibition; at 40 µM; stronger effect = lower value
Method in brief: as §1

[3] = target: Histamine N-methyltransferase (Homo sapiens) (UniProt P50135); conditions: purified enzyme, MTase-Glo SAH luminescence; measured here: HNMT inhibition; at 40 µM; stronger effect = lower value
Method in brief: as §1

[4] = target: Nicotinamide N-methyltransferase (Homo sapiens) (UniProt P40261); conditions: purified enzyme, MTase-Glo SAH luminescence; measured here: NNMT inhibition; at 40 µM; stronger effect = lower value
Method in brief: as §1

[5] = target: Phenylethanolamine N-methyltransferase (Homo sapiens) (UniProt P11086); conditions: purified enzyme, MTase-Glo SAH luminescence; measured here: PNMT inhibition; at 40 µM; stronger effect = lower value
Method in brief: as §1
% is scaled to controls: 0 for no effect and ±100 for the full control effect.

SMILES | activity change, negative = inhibition [1] [%] | activity change, negative = inhibition [2] [%] | activity change, negative = inhibition [3] [%] | activity change, negative = inhibition [4] [%] | activity change, negative = inhibition [5] [%]
CCCn1c(=O)c2ccc(C(=O)NC3CCCC3)cc2n2c(=O)n(Cc3ccc(F)cc3)nc12 | -8.13 | -3.3 | -2.56 | -3.45 | -7.44
CN1C(=O)c2cc(NC(=O)c3ccccc3F)ccc2N2CCN=C12 | -6.79 | -4.29 | 4.93 | -5.93 | -6.28
CC1(C(=O)NC2CCCCCC2)Cn2c(ccc2-c2ccco2)C(=O)N1Cc1ccc2c(c1)OCO2 (stereo not given) | -4.66 | 3.91 | -2.19 | -9.26 | -2.05
C[C@]12CC[C@@H]3c4ccc(O)cc4CC[C@H]3[C@@H]1C[C@@H](O[C@@H]1O[C@H](C(=O)O)[C@@H](O)[C@H](O)[C@H]1O)[C@@H]2O | -13.1 | 7.7 | -3.41 | -16.3 | -8.67
NC(=Nc1ccc(CCNCc2cccc(Cl)c2)cc1)c1cccs1 | 1.38 | 10.7 | -60.3 | -10.5 | -10.9
Cc1noc(-c2ccccc2OC2CCNC2)n1 (stereo not given) | -5.97 | -5.08 | -5.93 | -6.97 | -5.29
CC1(C)Cc2c(-c3ccccc3)c(-c3ccc(Cl)cc3)c(CC(=O)O)n2C1 | -10.9 | -26.1 | -1.74 | -45.7 | -6.27
CCOC(=O)CNC(=O)C1(C)Cn2c(ccc2-c2ccco2)C(=O)N1Cc1ccccc1Cl (stereo not given) | -0.855 | 2.27 | 1.2 | 1.99 | -0.519
CCCN1C(=O)c2c(C(=O)Nc3ccccc3Cl)ncn2CC1(C)C(=O)NCc1ccc(OC)cc1 (stereo not given) | -1.52 | 0.783 | 2.11 | 0.965 | 4.28
CC(C)NC(=O)c1ccc2c(=O)n(Cc3ccccc3)c3nnc(SCc4ccc(F)cc4)n3c2c1 | 5.01 | 1.33 | 10.5 | 1.97 | 7.24
CN1CCOC[C@H]2CCN(C(=O)c3cccs3)C[C@H]21 | 4.28 | -7.41 | -3.72 | -8.02 | 4.59
CCCn1c(=O)c2ccc(C(=O)NC(C)CC)cc2n2c(SCC(=O)Nc3ccc(C)cc3)nnc12 (stereo not given) | 0.677 | 0 | 5.37 | 1.79 | 2.9
Cc1ccc(OCc2nc(C3CCN(S(=O)(=O)Cc4ccccc4F)C3)no2)cc1 (stereo not given) | -3.65 | -2.42 | 0.925 | -3.33 | -2.97
O=C(CCc1ccncc1)NNC(=O)N1Cc2ccccc2Oc2ccc(Cl)cc21 | -1.56 | 11.3 | 3.2 | -3.96 | 9.64
CC1CN(c2cc3c(cc2F)c(=O)c(C(=O)O)cn3-c2ccc(F)cc2F)CCN1 (stereo not given) | -2.05 | 2.58 | -5.63 | -14.7 | -6.87
CCCn1cc(C(=O)N2C[C@@H](N(C)C)[C@H](c3ccc(C)cc3)C2)c(C)n1 | -3.85 | -2.96 | -2.34 | -8.56 | -2.87

From PubChem BioAssay AID1745853 (National Center for Advancing Translational Sciences (NCATS), 2022)
